# Measured values from PubChem BioAssay (Tox21).
# “And” between values parts separate entries of the source, which are not always exact repeats. Equal values may be shown once. This list was built around the results that the source calls inconclusive (neither active nor inactive); the mix of calls is not that of the screen. For some assays here: Potencies beside an inconclusive call are fits to weak or partial responses and may not hold up. Some compounds were tested as several samples or in several runs, with calls that do not always agree. The source made the active and inactive calls. The call rests on the fitted dose curve; in most records, active means well fitted curve in the direction sought with a large enough effect in the repeat runs; inconclusive means weak or mixed curves; inactive means no such curve, though single readings can be large; an effect the other way counts as inactive or inconclusive.
# Assays:
# [1] = qHTS RealTime-Glo MT Cell Viability Assay in HEK293 cells - 32 hour (AID 1224868); further: nearly all actives have a fitted effect of over 50% in size; further: potency means the concentration at half of the fitted maximal effect
# Method in brief: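 Tox21 10K qHTS, HEK293, 600 cells/well, RealTime-Glo reagent co-dispensed with cells; 5 h preincubation, compound by pintool, 37 C, luminescence at 0–40 h.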
# [2] = qHTS RealTime-Glo MT Cell Viability Assay in HepG2 cells - 8 hour (AID 1224873); further: potency means the concentration at half of the fitted maximal effect; nearly all actives have a fitted effect of over 55% in size
# Method in brief: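 HepG2 cells mixed with RealTime-Glo MT reagents (NanoLuc plus cell-permeant prosubstrate) were seeded at 600 cells/well, incubated 5 h at 37 C/5% CO2, then pinned with compounds in DMSO; nonlytic luminescence tracked viability during 40 h treatment.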
# [3] = qHTS RealTime-Glo MT Cell Viability Assay in HEK293 cells - 40 hour (AID 1224874); settings: RealTime-Glo luminescence; max response: stronger effect = lower value; further: nearly all actives have a fitted effect of over 50% in size; further: potency means the concentration at half of the fitted maximal effect; on max response: on the % scale 0 is the no-effect control and ±100 the full control effect
# Method in brief: (§1)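 600 HEK293 cells per well, dispensed already mixed with RealTime-Glo MT reagents. Compound dosing came 5 h later. The same wells were read for luminescence at 0, 8, 16, 24, 32 and 40 h of exposure at 37 C.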
# [4] = qHTS RealTime-Glo MT Cell Viability Assay in HEK293 cells - 0 hour (AID 1224880); further: potency means the concentration at half of the fitted maximal effect; nearly all actives have a fitted effect of over 45% in size
# Method in brief: as §1
# [5] = A CellTox Green Cytotoxicity Assay to monitor cytotoxicity in HepG2 cells - 16 hour (AID 1224876); further: potency means the concentration at half of the fitted maximal effect; nearly all actives have a fitted effect of over 45% in size
# Method in brief: (§2)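 First, HepG2 cells (600/well) mixed with reagent were plated; second, after 5 h at 37 C they received compounds via pintool; third, fluorescence was measured at 0 h through 40 h at 8 h intervals.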
# [6] = A CellTox Green Cytotoxicity Assay to monitor cytotoxicity in HepG2 cells - 24 hour (AID 1224878); further: potency means the concentration at half of the fitted maximal effect; nearly all actives have a fitted effect of over 45% in size
# Method in brief: as §2
# [7] = A CellTox Green Cytotoxicity Assay to monitor cytotoxicity in HepG2 cells - 40 hour (AID 1224879); further: nearly all actives have a fitted effect of over 40% in size; further: potency means the concentration at half of the fitted maximal effect
# Method in brief: as §2
# [8] = A CellTox Green Cytotoxicity Assay to monitor cytotoxicity in HEK293 cells - 32 hour (AID 1224881); further: nearly all actives have a fitted effect of over 40% in size; further: potency means the concentration at half of the fitted maximal effect
# Method in brief: (§3)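 Dead-cell fluorescence measured kinetically: asymmetric cyanine dye, HEK293, 600 cells/well, 5 h settle, 23 nL cpd/DMSO, 37 C, reads 0–40 h every 8 h.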
# [9] = A CellTox Green Cytotoxicity Assay to monitor cytotoxicity in HepG2 cells - 0 hour (AID 1224882); further: on the % scale 0 is the no-effect control and ±100 the full control effect; nearly all actives have a fitted effect of over 35% in size
# Method in brief: as §2
# [10] = A CellTox Green Cytotoxicity Assay to monitor cytotoxicity in HEK293 cells - 24 hour (AID 1224875); further: series mostly up to about 77 µM; on the % scale 0 is the no-effect control and ±100 the full control effect; nearly all actives have a fitted effect of over 45% in size
# Method in brief: as §3
# Tags describe the fitted curve by direction and shape.
smiles,measurement,setting,value
Cc1cc2nc3ccc(=[N+](C)C)cc-3sc2cc1N,Potency,[1],active: 2.39 µM
same,Potency,[2],active: 9.52 µM
same,Potency,[3],active: 2.13 µM
same,Potency,[4],"inconclusive: 19 µM [falling, partial curve]"
O=C(O)c1ccc2cc(C(=O)O)ccc2c1,Potency,[1],inactive
same,max response,[3],inactive: 7.36%
O=C1CCc2ccccc2O1,Potency,[1],inactive
same,Potency,[5],"inconclusive: 21.9 µM [activator, single point]"
same,Potency,[6],"inconclusive: 21.9 µM [activator, single point]"
same,Potency,[7],"inconclusive: 21.9 µM [activator, single point]"
same,Potency,[8],inactive and active: 21.9 µM
O=C(O)CP(=O)(O)O,Potency,[1],inactive
same,Potency,[7],inactive
CCCC(=O)OC(=O)CCC,Potency,[1],"inconclusive: 49.9 µM [rising, partial curve, poor fit]"
same,Potency,[3],"inconclusive: 44.5 µM [rising, partial curve]"
CC(C)(Cc1c[nH]c2ccccc12)NCC(O)COc1ccccc1C#N (centres undefined),Potency,[1],active: 16.9 µM
same,Potency,[3],active: 19 µM
same,Potency,[6],"inconclusive: 26.8 µM [activator, single point]"
same,Potency,[7],"inconclusive: 26.8 µM [activator, single point]"
Cc1ccc(S(=O)(=O)NC2CCCCC2)cc1,Potency,[1],"inconclusive: 34.4 µM [cytotoxic, partial curve, poor fit]"
same,Potency,[3],"inconclusive: 34.4 µM [cytotoxic, partial curve]"
same,Potency,[7],inactive
same,Potency,[9],inactive
C=CCOC(=O)COCCC(C)C,Potency,[1],inactive
same,Potency,[7],inactive
CCCC(=O)O[C@]1(C(=O)CC)CC[C@H]2[C@@H]3CCC4=CC(=O)CC[C@]4(C)[C@H]3[C@@H](O)C[C@@]21C,Potency,[1],"inconclusive: 21.3 µM [cytotoxic, partial curve]"
same,Potency,[3],"inconclusive: 19 µM [cytotoxic, partial curve]"
same,Potency,[10],inactive
same,Potency,[4],active: 12 µM
